Laboratory results from patent US8980259B2, “Combination therapy” (Novartis AG, priority 2012, dated 2015).

Key:
[1] = tested on: MCF7 human breast carcinoma cells; assay: Cell viability / proliferation assay (CELLTITER-GLO, dose matrix) in MCF7 cells; assay type: cell-based
Description: FIG. 1 is a series of graphs showing the effect of the combination of COMPOUND A with ANTIBODY A on MCF7 cell proliferation under the presence of IGF-1 (100 ng/ml). Briefly, MCF7 cells were treated in 384-well format for 5 days with COMPOUND A and ANTIBODY A in the presence of 100 ng/ml of IGF1 in SD medium. […] Each data point represents averaged data from 3 wells+standard deviation, and the color spectrum also represents the level of the inhibition. A red rectangle highlights the region where the combination is more efficacious than the single agents the same dose.
COMPOUND A (10 mM), stored in aliquots at −20° C. ANTIBODY A (0.2 mM in 1% BSA), stored in aliquots at 4° C. Insulin-like Growth Factor-1 (IGF-1; BD BioSciences, #40037) was utilized at 100 ng/mL.
MCF7 human breast carcinoma cells were stably transfected by a none insert control vector, also named MCF7/3(1). Unless otherwise mentioned, all MCF7 cell culture reagents were obtained from Invitrogen (Grand Island, N.Y. 14072USA). […]
Cell viability was determined by measuring cellular ATP content using the CELLTITER-GLO (CTG) luminescent cell viability assay (Promega). […] An equal volume of the CTG reagents was added to each well at the end of the compound treatment and luminescence was recorded on an ENVISION plate reader (Perkin Elmer). Reduced and enhanched luminescent signal values (responses) were calculated relative to untreated (control) cells.
To evaluate the anti-proliferative activity of COMPOUND A with ANTIBODY A in a non-bias way, as well as to identify synergistic effect at all possible concentrations, the studies were conducted with a “dose matrix.” This utilized different permutations of serially-diluted single agents: COMPOUND A, and ANTIBODY A. In combination assay, agents were applied simultaneously and were assessed in the presence and absence of IGF-1. […]
The synergistic interaction (analyzed using Chalice software [CombinatoRx, Cambridge Mass.]) was calculated by comparing the response from a combination to the response of the agent acting alone, against the drug-with-itself dose-additive reference model. […]

MCF7 xenograft = MCF7 xenograft in mice, tumor volume; assay type: in vivo
Description: MCF-7 cells (purchased from American Type Culture Collection (ATCC)) were tested free of mycoplasma and viral contamination in the IMPACT VIII PCR assay panel (RADIL, MU Research Animal Diagnostic Laboratory, Columbia, Mo.). MCF-7 cells were cultured in EMEM medium (ATCC#30-2003) containing 10% heat-inactivated fetal bovine serum. Mice were implanted with 17b-estradiol pellets, 0.18 mg/pellet, 90-day release (Innovative research of America Catalog #NE-121), between the shoulder blades three days before the cell implant.
Treatment started on day 21 and concluded by day 59. Tumor volume of each group was measured. The effect of COMPOUND A and ANTIBODY A, as monotherapy and combination, was assessed by comparing: • (a) the percent change between Day 1 and endpoint day in the mean tumor volume of the treated group (T) and the control group (C) (herein referred to as “T/C”), and • (b) the percent change between Day 1 and the endpoint day in the mean tumor volume of the treated group compared to its initial volume (herein referred to as “T/T0”).

B1: ANTIBODY A: fully human IGF1R inhibitory antibody; heavy chain SEQ ID NO:1, light chain SEQ ID NO:2; disclosed in U.S. Pat. No. 7,871,611 (antibody)
heavy: QVQLQESGPGLVKPSGTLSLTCAVSGGSISSSNWWSWVRQPPGKGLEWIGEIYHSGSTNYNPSLKSRVTISVDKSKNQFSLKLSSVTAADTAVYYCARWTGRTDAFDIWGQGTMVTVSS[human IgG1 constant region left out]
light: [about 100 residues left out]THWPLTFGQGTKVEIKRTVAAPSVFIFPPSDEQLKSGTASVVCLLNNFYPREAKVQWKVDNALQSGNSQESVTEQDSKDSTYSLSSTLTLSKADYEKHKVYACEVTHQGLSSPVTKSFNRGEC
modifications: Synthetic antibody A heavy chain; Synthetic antibody A light chain
**Q.** How did the “MCF7 growth inhibition in vitro (summary in words)” value ([1]; MCF7, Experiment 1 summary) turn out when B1 was run?
**A.** modest inhibitory activity

**Q.** What about the “anti-proliferative activity (in words)” value ([1]; MCF7, single agent, in the absence of IGF1) of the same molecule?
**A.** almost totally inactive

**Q.** And the “inhibition of cell proliferation” value ([1]; MCF7, single agent, in the presence of IGF1 (100 ng/ml), SD medium, 120 hours, CTG)?
**A.** 10-20%

**Q.** What about the “tumor outcome in MCF7 xenograft (summary in words)” value (MCF7 xenograft; MCF7 xenograft in mice, Experiment 2 summary) of the same molecule?
**A.** marginal growth inhibition

**Q.** And the “T/C (percent change in mean tumor volume, treated vs control group)” value (MCF7 xenograft; MCF7 xenograft mice, COMPOUND A 30 mg/kg qd po, ANTIBODY A 12 mg/kg q2w ip, treatment day 21 to day 59)?
**A.** 48%
